The values that follow come from PubChem BioAssay AID1745853 (National Center for Advancing Translational Sciences (NCATS), 2022).

The other results are listed elsewhere or left out. Shown are side measurements of this screen, not its main read-out; they come without a call.

What all share (experiment): Primary Screen for Target Class Profiling of Small Molecule Inhibitors of Methyltransferases
Test [1] has as its target Glycine N-methyltransferase (Homo sapiens) (UniProt Q14749). To be noted: purified enzyme, MTase-Glo SAH luminescence; measured here: GNMT inhibition; at 40 µM; stronger effect = lower value. An outline of the steps: (§1)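 Each enzyme was assayed with SAM and its substrate. SAH formation detected by MTase-Glo luminescence; single-point 40 uM screen[…].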
Test [2] addresses Guanidinoacetate N-methyltransferase (Homo sapiens) (UniProt Q14353). To be noted: purified enzyme, MTase-Glo SAH luminescence; measured here: GAMT inhibition; at 40 µM; stronger effect = lower value. An outline of the steps: as §1
Test [3] deals with Histamine N-methyltransferase (Homo sapiens) (UniProt P50135). The following applies: purified enzyme, MTase-Glo SAH luminescence; measured here: HNMT inhibition; at 40 µM; stronger effect = lower value. An outline of the steps: as §1
Test [4] has as its target Nicotinamide N-methyltransferase (Homo sapiens) (UniProt P40261). To be noted: purified enzyme, MTase-Glo SAH luminescence; measured here: NNMT inhibition; at 40 µM; stronger effect = lower value. In short, it runs like this:
as §1

Test [5] addresses Phenylethanolamine N-methyltransferase (Homo sapiens) (UniProt P11086). To be noted: purified enzyme, MTase-Glo SAH luminescence; measured here: PNMT inhibition; at 40 µM; stronger effect = lower value. An outline of the steps: as §1
% is set by controls: 0 for no effect and ±100 for the full control effect.

With `COCCCNC(=O)C1(C)Cn2nc(-c3ccccc3)cc2C(=O)N1Cc1ccccc1Cl` (stereo not drawn), the activity change, negative = inhibition in test [1] was 1.47%; in test [2] it was 0.19%; in test [3], 3.15%; in test [4], 4.23%; in test [5], -2.4%.
For `NC(=O)c1ccc2[nH]ccc2c1`, in that order: -4.14%, -0.982%, -2.57%, -13.3% and -4%.
For `CCN(CC)c1nc2c(-c3ccc(F)cc3)nnn2c2ccccc12`, in that order: -0.268%, 0%, 7.85%, 1.74% and -2.76%.
Regarding `Cc1c(-c2ccnc(Nc3cc(Br)cc(C(F)(F)F)c3)n2)sc(=O)n1C`, the figures for the activity change, negative = inhibition in test [2], in test [4] and in test [5] were -5.43%, -0.329% and -5.67%, respectively.
In the case of `COCc1nnc2n1CCC(NC(=O)CCc1c(C)noc1C)CC2` (stereo not drawn), the activity change, negative = inhibition in test [1] was -5.62%; in test [2] it was -9.83%; in test [3] it was -5.32%; in test [4], -13.8%; in test [5], -9.6%.
For `CC(C)Cn1c(=O)c2ccc(C(=O)NC(C)C)cc2n2c(SCc3ccccc3F)nnc12`, in that order: -1.12%, 2.71%, -2.58%, 1.19% and -3.58%.
Regarding `CCCN1CCC=C(c2cc(-c3ccc(C)cc3)no2)C1`, the activity change, negative = inhibition in test [1] was 1.66%; in test [2], 13.3%; in test [3] it was 5.76%; in test [4], -6.49%; in test [5], 2.15%.
Consider `COc1ccc(CNC(=O)c2cc3n(n2)CC(C)(C(=O)NCc2ccc(F)cc2)N(C)C3=O)c(OC)c1` (stereo not drawn), for which the activity change, negative = inhibition was -5.81% in test [1]; -0.016% in test [2]; -9.03% in test [3]; -9.08% in test [4]; -1.64% in test [5].
For `CCc1cc2c(cc3n2CC(C)(C(=O)NC2CCCCCC2)N(CCc2ccccc2)C3=O)s1` (stereo not drawn), in that order: 5.52%, 0.905%, 8.75%, 7.4% and 0.864%.
For `C=C1CCCC2(C)CCC(C(C)(C)OC3OC(C)C(O)C(O)C3OC(=O)/C(C)=C\C)CC12` (stereo not drawn), in that order: -3.39%, 4.11%, 11.3%, -19% and -9.41%.
Turning to `OCCC#Cc1ccc(CN2CCC(CO)(Cc3ccccc3Cl)CC2)cc1`, the activity change, negative = inhibition in test [1] was -2.5%; in test [2], -2.32%; in test [3] it was -20%; in test [4], -10.1%; in test [5], -14%.
Turning to `O=C(N1CCCC1)N1CCCC(c2nnc3n2CCNC3)C1` (stereo not drawn), the activity change, negative = inhibition was -2.45% in test [1]; -2.64% in test [2]; -3.34% in test [3]; -3.11% in test [4]; -3.58% in test [5].
For `Cn1nccc1CN1CC2(C1)C(=O)Nc1ccccc12`, in that order: -7.69%, 0.521%, -17.4%, -2.08% and -1.12%.
For `Cc1ccc(CNC(=O)C2(C)Cn3nc(C(=O)NCCCOC(C)C)cc3C(=O)N2C)cc1` (stereo not drawn), in that order: 1.84%, 2.47%, 0.699%, 0.621% and -1.16%.
For `O=C1C=CC2OC(c3ccccc3)C(O)C2O1` (stereo not drawn), in that order: 4.06%, 3.17%, 10.7%, -7.83% and 1.3%.
Regarding `Cc1[nH]nc(CCC(=O)N2CC[C@@H](NC(=O)c3cnccn3)[C@H](O)C2)c1C`, the activity change, negative = inhibition was -3.92% in test [1]; -6.88% in test [2]; -3.97% in test [3]; -4.47% in test [4]; -3.46% in test [5].
Take `CSc1ccc(CN2C(=O)c3cc4ccccc4n3CC2(C)C(=O)NCCCOC(C)C)cc1` (stereo not drawn): the activity change, negative = inhibition in test [1] was -0.205%; in test [2] it was 2.54%; in test [3], 2.9%; in test [4], -4.61%; in test [5], -1.77%.
For `O=C(Cn1ccc2cc(S(=O)(=O)N3CCCCC3)ccc21)NCc1cccc(Br)c1`, in that order: -0.133%, -0.27%, 2.89%, -4.1% and -3.82%.
For `CN(C)CCOCC1(C)COc2ccc(C(=O)Nc3ccc4[nH]ccc4c3)cc2N1` (stereo not drawn), in that order: -11.7%, -9.43%, -87.6%, -9.42% and -11.3%.
For `O=C(c1ccoc1)N1CCN(c2cc(C3CC3)ncn2)CC(O)C1` (stereo not drawn), in that order: -2.9%, -4.78%, -1.01%, -7.09% and -4.07%.
Turning to `CN1C(=O)CCCCC1C(=O)NCCN1CCCCC1` (stereo not drawn), the activity change, negative = inhibition in test [1] was -9.57%; in test [2] it was -13.3%; in test [3], -9.01%; in test [4], -16.7%; in test [5], 6.11%.
For `CC1(C(=O)NC2CCCCC2)Cn2nc(-c3ccco3)cc2C(=O)N1Cc1ccccc1F` (stereo not drawn), in that order: -2.61%, -1.85%, 4.27%, 5.09% and 0.852%.
For `O=C(NCc1cccnc1)c1ccc2c(=O)nc3c(-c4ccc(F)cc4)n[nH]n3c2c1`, in that order: -2.31%, -0.778%, 0.529%, 3.54% and -5.41%.
For `CCCn1c(=O)c2ccc(C(=O)NC(C)CC)cc2n2c(=O)n(CC(=O)Nc3ccc(C)cc3)nc12` (stereo not drawn), in that order: 1.27%, 3.77%, 0.832%, -0.806% and -2%.
Regarding `CC1(C(=O)NC2CCCCCCC2)Cn2c(cc3sccc32)C(=O)N1Cc1ccccc1` (stereo not drawn), the activity change, negative = inhibition was -9.54% in test [1]; -1.47% in test [2]; -3.37% in test [3]; -15.3% in test [4]; -6.26% in test [5].
